PubChem BioAssay AID360 (National Center for Advancing Translational Sciences (NCATS), 2006)
The campaign covered roughly 48,000 compounds. About 550 (1.1%) were called active. Roughly 4% stayed inconclusive and do not appear here. Cut-off read from the data, not from the text of the source: active = potency below about 15 µM; inconclusive = mostly about 16 µM to 33 µM; inactive = weaker than that. Some of the results follow.

Biological target: Lysosomal acid glucosylceramidase (Homo sapiens) (UniProt P04062)
Assay: Glucocerebrosidase;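 note: the screen sought inhibitors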
Details: purified enzyme, resorufin glucoside fluorescence (screen aimed at inhibitors), 20 min; series mostly up to 77 µM
Procedure, shortened: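 Compounds titrated against 0.2 nM normal enzyme, 30 uM resorufin beta-D-glucopyranoside substrate, citrate/phosphate buffer with taurocholate and tween-20, pH 5.9. Reaction ran 20 min at room temperature; fluorescence (Ex 548/Em 600) gave AC50.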
Potency is the fitted concentration of half-maximal effect.

Sequence of UniProt P04062 (P04062 whole entry, looked up): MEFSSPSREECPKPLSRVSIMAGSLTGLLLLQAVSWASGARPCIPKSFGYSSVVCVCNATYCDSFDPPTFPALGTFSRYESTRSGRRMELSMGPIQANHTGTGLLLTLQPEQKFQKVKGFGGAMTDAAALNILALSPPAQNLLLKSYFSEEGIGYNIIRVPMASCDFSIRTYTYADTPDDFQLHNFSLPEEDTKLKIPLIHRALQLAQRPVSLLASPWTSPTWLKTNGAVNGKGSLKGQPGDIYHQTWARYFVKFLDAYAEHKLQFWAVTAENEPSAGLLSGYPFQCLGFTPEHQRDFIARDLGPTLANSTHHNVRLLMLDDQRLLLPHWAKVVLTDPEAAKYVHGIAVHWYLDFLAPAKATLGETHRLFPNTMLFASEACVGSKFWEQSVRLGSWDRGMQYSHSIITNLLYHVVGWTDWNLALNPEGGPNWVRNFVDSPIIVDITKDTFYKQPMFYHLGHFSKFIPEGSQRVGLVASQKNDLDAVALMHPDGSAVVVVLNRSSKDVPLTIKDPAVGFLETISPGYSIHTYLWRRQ

Potency, inactive:
O=C(COc1ccc(S(=O)(=O)NCc2ccccc2)cc1)NCC1CCCO1 (centres undefined) > 76.9 µM, Cc1noc(C)c1COC(=O)CCCOc1ccc(Cl)cc1Cl > 76.9 µM, COc1ccc(CNC(=O)C2CCCN2S(=O)(=O)c2ccc(C)cc2)cc1 (centres undefined) > 76.9 µM, O=C(O)C(F)(F)S(=O)(=O)O > 76.9 µM, c1ccc(-c2cnn3nnnc3n2)cc1 > 76.9 µM, O=C(COC(=O)CCc1nc2ccccc2s1)Nc1ccc(S(=O)(=O)N2CCOCC2)cc1 > 76.9 µM, COc1ccc2c(c1)C(=O)N(c1ccccc1OC)C(=O)C2(C)C > 76.9 µM, C#CCOc1ccc2c(C)cc(=O)oc2c1 > 76.9 µM, Cn1cnnc1SCc1ccc(-c2ccc(Br)cc2)o1 > 76.9 µM, CC(=O)Nc1cccc(NC(=O)Nc2ccc(C(C)=O)cc2)c1 > 76.9 µM, COC(=O)CNC(=O)c1ccc2c(c1)S(=O)(=O)c1ccccc1C2=O > 76.9 µM, CCCS(=O)(=O)N1CCN(C(=O)c2cc(OC)cc(OC)c2)CC1 > 76.9 µM, CCOc1ccc(N2CC(C(=O)Oc3ccccc3)CC2=O)cc1 (centres undefined) > 76.9 µM, ON1C(c2ccccc2C(F)(F)F)N(O)[C@H]2CCCC[C@H]21 (some centres undefined) > 76.9 µM, Cc1csc(NC(=O)CSc2nnc(-c3ccoc3C)o2)n1 > 76.9 µM, CCCCNC(=O)CC1N=C2c3ccccc3N=C(SCC(=O)Nc3ccccc3C)N2C1=O (centres undefined) > 76.9 µM, Cc1ccc(CS(=O)(=O)CCC(=O)NCCCOC(C)C)cc1 > 76.9 µM, CCn1cc(C(=O)N2CCN(C3CCCCC3)CC2)c2cc(OC)c(OC)cc2c1=O > 76.9 µM, CC1Cn2c(CCc3ccccc3)nnc2S1 (centres undefined) > 76.9 µM, CCOC(=O)Nc1ccc(C(=O)NCC2CCCO2)cc1 (centres undefined) > 76.9 µM, Cn1c(SCC(=O)N2CCOCC2)nc2cccnc21 > 76.9 µM, Cn1c(SCC(=O)Nc2cccc(O)c2)nnc1-c1ccc(S(=O)(=O)N2CCOCC2)cc1 > 76.9 µM, CCn1c2ccccc2c2nnc(SCC(=O)Nc3ncccn3)nc21 > 76.9 µM, Cc1ccc(NC2=Nc3ccccc3CS2)cc1 > 76.9 µM, COc1ccc(N2C(=O)CC(N3CCN(S(=O)(=O)c4c(F)cccc4F)CC3)C2=O)cc1OC (centres undefined) > 76.9 µM, O=C(NS(=O)(=O)c1ccccc1Cl)c1ccc[nH]1 > 76.9 µM, CCn1c(=O)cc(O)c2c(=O)n(C)c(=O)n(C)c21 > 76.9 µM, C=C(C)c1cccc(C(C)(C)NC(=O)N2CC(C)OC(C)C2)c1 (centres undefined) > 76.9 µM, Cc1ccc(NC(=O)CCNS(=O)(=O)c2ccc3c(c2)oc(=O)n3C)cc1 > 76.9 µM, CSc1nc(-c2ccco2)nn1S(C)(=O)=O > 76.9 µM, COc1ccc(-n2c(=O)[nH]cc(C(=O)Nc3ccc(NC(C)=O)cc3)c2=O)cc1 > 76.9 µM, CCCNc1nc2c(c(=O)n(C)c(=O)n2C)n1CCC(C)C > 76.9 µM, Cc1ccc(NC(=O)CCSc2nnc(-c3ccco3)o2)cc1 > 76.9 µM, CC(=O)N1CCC(C(=O)Nc2ccccc2)(N(Cc2ccccc2)C(=O)c2cccnc2)CC1 > 76.9 µM, O=C(CCCNS(=O)(=O)c1cccc2nsnc12)NCc1ccc(Cl)cc1 > 76.9 µM, COc1ccc(NC(=O)c2ccco2)cc1NC(=O)c1ccc(Br)o1 > 76.9 µM, FC(F)(F)c1cccc(N2Cc3ccccc3C2)c1 > 76.9 µM, O=C(O)CC1CCC(=C(Cl)Cl)C1 (centres undefined) > 76.9 µM, COc1ccccc1NC(=O)Cc1cccs1 > 76.9 µM, CCOC(=O)NC(=O)CSc1nc2ccc(OCC)cc2[nH]1 > 76.9 µM, COc1ccc2oc(C(=O)C3CC3)c(N)c2c1 > 76.9 µM, COCCNC(=O)COc1ccc(Nc2ccccc2)cc1 > 76.9 µM, Cc1ccc(NC(=O)CSc2nc3nc(C)cc(C)c3c(=O)[nH]2)cc1 > 76.9 µM, O=C(O)CCSc1nnnn1-c1ccccc1 > 76.9 µM, Cc1ccc(C(=O)C2=C(O)C(=O)N(CCN(C)C)C2c2ccccn2)o1 (centres undefined) > 76.9 µM, CCCCCc1c(O)nc(SCC(=O)NCC2CCCO2)[nH]c1=O (centres undefined) > 76.9 µM, Cc1nc(CC(=O)O)c(-c2ccccc2)s1 > 76.9 µM, Cc1cc(-n2c(C)cc(C(=O)CSc3nc4ccccc4c(=O)n3Cc3ccco3)c2C)no1 > 76.9 µM, O=C(CCC1COc2ccccc2O1)NCC1COc2ccccc2O1 (centres undefined) > 76.9 µM, Cc1cccc(N(CC(=O)NCc2ccco2)C(=O)CCC(=O)Nc2ccccn2)c1 > 76.9 µM, COc1ccc(CC(=O)NCc2cn3ccsc3n2)cc1 > 76.9 µM, COc1ccc(-c2cc(-c3c(O)c(OC)c4occc4c3OC)[nH]n2)cc1OC > 76.9 µM, O=C1NC(Cc2c[nH]c3ccccc23)C(=O)N1CCOc1ccccc1 (centres undefined) > 76.9 µM, c1ccc(-c2noc(-c3ccco3)n2)nc1 > 76.9 µM, CCOC(=O)c1c(C)c(C(=O)NCc2ccco2)c(C)n1Cc1ccccc1 > 76.9 µM, COc1ccc(C2C3=C(CC(C)(C)CC3=O)Oc3ncn(CCCn4ccnc4)c(=N)c32)cc1 (centres undefined) > 76.9 µM, COc1ccc(-c2nnc3n2N=C(c2ccccc2)CS3)cc1OC > 76.9 µM, COc1ccc(NC(=O)C2C3CCC(C3)C2C(=O)O)cc1OC (centres undefined) > 76.9 µM, O=C(Cn1nc(-c2ccc(Cl)cc2)ccc1=O)NCCCN1CCN(Cc2ccccc2)CC1 > 76.9 µM
